Assay results reported in patent US20220049002A1 (KINDRED BIOSCIENCES, published 2022).

Key:
[1] = biological target: T1, Canine IL13_C-His6 (processed) (canine, UniProt Q9N0W9 19-131); experiment: BLI (Octet): m4 on anti-human Fc tips, canine IL13_C-His6 50 ug/mL
T1 sequence: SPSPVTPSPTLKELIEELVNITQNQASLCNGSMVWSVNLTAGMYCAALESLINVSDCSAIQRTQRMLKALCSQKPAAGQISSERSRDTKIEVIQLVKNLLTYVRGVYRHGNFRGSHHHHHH
Protocol: (§1) Various binding analyses of Clone B, Clone I, canine IL4, and canine IL13 ligands to canine IL4R were performed using an Octet Biosensor. Canine IL4R-ECD_C-HuFc_His6 (SEQ ID NO: 109) was captured on anti-human Fc-bound sensor tips. The association of Clone B or Clone I antibody (25 μg/mL) and canine IL4R-ECD_C-HuFc_His6 was monitored for 600 seconds. The complex-bound tips were washed briefly and then exposed to canine IL4_C-His6 (SEQ ID NO: 127; 50 μg/mL) or canine IL13_C-His6 (SEQ ID NO: 157; 50 μg/mL) and monitored for 600 seconds.
(§2) The opposite binding assay was also performed. The association between canine IL4_C-His6 (SEQ ID NO: 127; 50 μg/mL) or canine IL13_C-His6 (SEQ ID NO: 157; 50 μg/mL) and canine IL4R-ECD_C-HuFc_His6 captured on anti-human Fc-bound sensor tips was monitored for 600 seconds. The complex-bound tips were washed briefly and then exposed to Clone B antibody (50 μg/mL) or Clone I antibody (50 μg/mL) and monitored for 600 seconds. Following IL4 and IL13 binding to IL4R (FIG. 3C and FIG. 3D, respectively), further association with Clone B or Clone I was observed.

[2] = biological target: T2, Canine IL4_C-His6 (processed) (canine, UniProt O77762 25-131, biotinylated in the blocking ELISA of Example 2); experiment: BLI (Octet): m4 on anti-human Fc tips, canine IL4_C-His6 50 ug/mL
T2 sequence: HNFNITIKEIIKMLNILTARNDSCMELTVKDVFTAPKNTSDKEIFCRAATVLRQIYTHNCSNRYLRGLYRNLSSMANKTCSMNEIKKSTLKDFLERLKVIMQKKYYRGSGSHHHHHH
Protocol: as §1, §2

binding result [1]: binds | binding result [2]: binds
B1: Canine IL4R-ECD_C-HuFc_His6 (processed) (Fc fusion)
chain: GSVKVLHEPSCFSDYISTSVCQWKMDHPTNCSAELRLSYQLDFMGSENHTCVPENREDSVCVCSMPIDDAVEADVYQLDLWAGQQLLWSGSFQPSKHVKPRTPGNLTVHPNISHTWLLMWTNPYPTENHLHSELTYMVNVSNDNDPEDFKVYNVTYMGPTLRLAASTLKSGASYSARVRAWAQTYNSTWSDWSPSTTWLNYYEPGSENLYFQ[human IgG1 Fc and a few adjoining residues omitted]
